Measurements published in the supplement of paper PMC10338343.
± gives the standard deviation. The list shows a part of the results, in another mix than the full data.

What follows are sequences tested on MIWI (PIWIL1) piRISC loaded with L1MC piRNA (30 nt) (assay: pre-steady-state target cleavage rate (min^-1); MIWI and MILI are mouse PIWI proteins and EfPiwi is from a freshwater sponge; tags in brackets are library labels; higher = faster piRNA-guided slicing of the target). Details: guide: L1MC piRNA 5'p-UAACUAAAUACUAUGCAAGCUGUAGGUCCU; auxiliary factor: 500 nM mouse GTSF1.
Summary of the method: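 Cleave-'n-Seq measured uncleaved targets by sequencing after a transcribed, DNA-blocked target RNA library […] was mixed with 1 nM active affinity-purified piRISC holding one synthetic guide, with or without 500 nM GTSF1 partner protein, at 33 °C in HEPES–potassium acetate buffer for 0–8 or 0–960 min. Counts were normalised to depth and to weakly complementary targets, three trials were pooled, and k3 was capped at 0.0001 min^-1. A burst-and-steady-state fit gave the pre-steady-state cleavage rate.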
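Also: 1 nM active piRISC with 0.1 nM target library at 33 °C single turnover.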

Compared with UCCUGCUACAGCUUGCAUAGUAAAUAGUAA, “UCCUGGUACAGCUUGCAUAGUAAAAUCAAA [g9:g24:cont:t1A]” is lower in “pre-steady-state target cleavage rate” value: 0.163 ± 0.038 for the first, 0.0403 ± 0.015 for the second.

Compared with AGGACCUACAGCAACCAUAGUAUUUAGUAA, AGGACCUACAGCUUGCUAUGUAUUUAGUAA is lower in “pre-steady-state target cleavage rate” value: 0.221 ± 0.033 for the first, 0.131 ± 0.026 for the second.

Going from UCCUGGAUGUGCUUGCAUAGUAUUUUCAUA to UGGACCUACAGCUUGCAAUCUAUUUAGUUA, the “pre-steady-state target cleavage rate” value rises from 0.0173 ± 0.0067 to 0.207 ± 0.022.

First: UGGACCUACAGCAACCAUAGUAUUUAGUAA
Second: UCCUGCUACAGCAAGCAUAGUAUUUAGUAA
The “pre-steady-state target cleavage rate” value of the first is lower: 0.0818 ± 0.015 for the first, 0.726 ± 0.084 for the second.

Compared with UCCUGGAUGUCGAACGUAUCUAUUUAGUAUA, UCCACCUACAGGAAGCAUAGUAUUUUCAAA is higher in “pre-steady-state target cleavage rate” value: less than 0.0001 for the first, 0.0423 ± 0.01 for the second.

UCCUGGAUGUCCUUGCAUAGUAAUUUGUUA and UCCUGGAUGUGGUUGCAUAGUAUUUAGAUA are within error of each other in “pre-steady-state target cleavage rate” value: 0.011 ± 0.005 for the first, 0.00533 ± 0.0039 for the second.

Going from UCCUGGAAGUCCUUGCAUAGUAUUUUCAAA to UGGACCUACACGUUGCAUAGUAUUUAGAAA, the “pre-steady-state target cleavage rate” value rises from 0.0083 ± 0.0049 to 0.193 ± 0.018.
